Consider 22 molecules from PMC12136788.

T1: UNK ZnF1-3 (human, UniProt Q9C0B0 31-174)
T1 sequence: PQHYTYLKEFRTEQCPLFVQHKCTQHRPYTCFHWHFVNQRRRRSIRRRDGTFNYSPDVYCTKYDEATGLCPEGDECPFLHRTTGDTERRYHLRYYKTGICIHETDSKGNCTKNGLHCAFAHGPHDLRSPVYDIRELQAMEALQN

B1: 105037214_105037334_355_CDS_ENSG00000148798_ENST00000369849|human|control|control (ssRNA)
RNA: GGGAGUUCUACAGUCCGACGAUCCAACGCGCGGUUCUGCGUCUCCAGCUGAUGCACCUUCUCGAUGAACACGGCGAAGCGGUCGUUGAGGCCCUGCAGCUGCUCCUUCUCGUUGGUGCGGAUGAUCUUGUACUCGUUGGUGCGCAACAGAGGAUUGAGCAUCA
B2: chr16:94690093:94690094:+_ENSMUSG00000040785_ENSMUST00000117648|mus_hu|mus_mus_mus_hu_True|1_28 (ssRNA)
RNA: GGGAGUUCUACAGUCCGACGAUCGGGCUGGGAUGACGGACACACAGCCUCGAUUCCAGGGGGAAAAAGUCUUAGUCGAUACUAAUUAAAAAGUGUUAAUGAUUUUUAUUACCAAAAUUACAUCUAUAAAAGAUGAAAGCACUUCAACAGAGGAUUGAGCAUCA
B3: chr7:141445308:141445309:+_ENSG00000106028_ENST00000265304|hu_hu|hu_hu_hu_mus_False|68_98 (ssRNA)
RNA: GGGAGUUCUACAGUCCGACGAUCUAUGAUUGUUGUUGCUUGUCGCCUCACAUUGUUUUUAUCCAUGUAUUCACCAUAGUCCACUUUCCCUUCCACAAAUAUACGAGCCCCCUUUUUCACAUACUGAUAUGCCACAUCUCUGAGCAACAGAGGAUUGAGCAUCA
B4: chr2:179515052:179515053:+_ENSMUSG00000000305_ENSMUST00000000314|mus_hu|mus_mus_mus_hu_False|1_18 (ssRNA)
RNA: GGGAGUUCUACAGUCCGACGAUCGCUGUCCCAUGCAGUCACCGUGAACGCCACCUGCUCGGAGGGGACCUGCAGCUCCCGGGUGGCGAAGACUGUCCCAUCUGCCCCAACUUUGAAGUCCAAGCUGUUGGUCUCAUACUGCAUCAACAGAGGAUUGAGCAUCA
B5: chr1:220276048:220276049:+_ENSG00000067704_ENST00000302637|hu_hu|hu_hu_hu_mus_True|18_38 (ssRNA)
RNA: GGGAGUUCUACAGUCCGACGAUCGCAAAUUGCCUGGUUGGCGGGAAUUGUCCAAGGCUGGGUGGUCCAAACUAAAACGCUAACAGGGGAUGAGGCAUCUAUAAGAGACUCCAACUUUGGAGAAGGCCUCAGGAGGGGGAAUCUCAACAGAGGAUUGAGCAUCA
B6: chr16:18151368:18151369:+_ENSMUSG00000043811_ENSMUST00000059589|mus_mus|FALSE|FALSE (ssRNA)
RNA: GGGAGUUCUACAGUCCGACGAUCGAGGAGGCGGUCAAGACUGUGCAGGCCACGGAAAGCGUGCUCAGGCACACUGGGGAUACGGUUGCCAUGCAGAAAGAGAUGCGUGAGGUUGCCCAGGUCUCGAAAGGUGUUGUCAGGGAGCAACAGAGGAUUGAGCAUCA
B7: 18185068_18209478_189_3pUTR_ENSG00000099968_ENST00000399777|human|control|control (ssRNA)
RNA: GGGAGUUCUACAGUCCGACGAUCUUCCUCCUCCUCUGACUCAAGACUAAACACAGUGCCCCAGCCACCUUGCUGAAUGAUGUACUCUGCCGAAUAGUCCUCCAGGUAUGUCACGCCAAACUGCAGCAGUGCGCUCAAAGGUUCCAACAGAGGAUUGAGCAUCA
B8: chr10:106022761:106022762:+_ENSG00000148834_ENST00000369713|hu_mus|motif|central (ssRNA)
RNA: GGGAGUUCUACAGUCCGACGAUCGAAUUCGUUCUCCAACGCUUCCCUUAGGUUCGGAGAGUCUUCCUUUCUCUUCGACCGGACAAAGCUUGCAAUCAAAGGCGGCACCUUAGAGAAUGACUCAAGGGUCAUCUUCUGACGUGCCAACAGAGGAUUGAGCAUCA
B9: chr4:103717905:103717906:-_ENSG00000109332_ENST00000394803|hu_mus|motif|central (ssRNA)
RNA: GGGAGUUCUACAGUCCGACGAUCUUCAGUGCUAUAUUAAACAGUAUUGGAAGAUAGAUUAACUAAUAGCUCCAAGCCUCCGGACAAUUUAAAUGAAAAUUACAAAAUGUUUUGAGACCCUAUUUUGGAAUACAAAGGGUGUUUCAACAGAGGAUUGAGCAUCA
B10: chr7:54825262:54825263:-_ENSG00000132432_ENST00000352861|hu_hu|hu_hu_hu_mus_False|8_108 (ssRNA)
RNA: GGGAGUUCUACAGUCCGACGAUCCUGACUUGGCUCAUCCACAAACUGCAUUACCUGAUCCAUGUUUGUUGGAUGGCGGAUUGAGAGCGUAGAGACACGUAGCUCAGGAGAGAACCGAGCCCAACGGCACCGGAACCUGGCAACCAACAGAGGAUUGAGCAUCA
B11: chr19:7501953:7501954:-_ENSMUSG00000024758_ENSMUST00000025667|mus_hu|FALSE|FALSE (ssRNA)
RNA: GGGAGUUCUACAGUCCGACGAUCCAAGGAAGGUAUCACACUCCUGUCCCCAAAUAAUUUUUUCAUAAGUUAAUCAUGACUUCUUAAGGGCAAAACUAUAAUGGAUAGCUGAGUAAGACUAGUGCUGAAAACUGGACAGAAGGACAACAGAGGAUUGAGCAUCA
B12: chr11:77336104:77336105:-_ENSG00000074201_ENST00000525064|hu_mus|hu_hu_hu_mus_False|28_78 (ssRNA)
RNA: GGGAGUUCUACAGUCCGACGAUCCUCACACAUUGCUGUGAACAUCGCCUCCAAUGCUGAUUUAUCACUGGGCACAAAUCGAAAUUCAGAAAUGGGUUCAACAUCAUCAUCACUGUCCUCAUCUUCAUCAGAGAGAGGUUCUUUCAACAGAGGAUUGAGCAUCA
B13: chr2:172809444:172809445:+_ENSG00000128708_ENST00000264108|hu_hu|FALSE|FALSE (ssRNA)
RNA: GGGAGUUCUACAGUCCGACGAUCCUCAUCAACUUUAGAUGCAUAUUCAACACGGAACAUUGUUGACAGGCUACCAGCAAUAUAGUAUAACAGGAUCUUUAGACCCUUGUAACCAAAAGCAGUUUCAUCAUCCCCAAAGAGUUGCAACAGAGGAUUGAGCAUCA
B14: chr5:128448638:128448639:+_ENSG00000066583_ENST00000173527|hu_mus|hu_hu_hu_mus_False|18_78 (ssRNA)
RNA: GGGAGUUCUACAGUCCGACGAUCGGCACUCGCCUUAAUUAGGUUCUGAAUUUCCUUGAAUUUUGGAUGGUCUUUGUCAGCCACCAGCUGUAGGAGGACAGCCUCACUAGUGGUCACUAUGAUCCCGGUGCGGGCAAGACGCUCCAACAGAGGAUUGAGCAUCA
B15: chr11:4127340:4127341:+_ENSG00000167325_ENST00000300738|hu_mus|hu_hu_hu_mus_False|78_88 (ssRNA)
RNA: GGGAGUUCUACAGUCCGACGAUCGGCAUAGUCAGGGUGCUUCGUGGUCAAGGUUGCAGCUGUUUCAGCAGCCAGGGUGUCCAGUUCCACUGUGGUGACCCCACUAUAUAGGCCUUGGAUUACUUUCAUGGUGAUCUGAGCAGGCAACAGAGGAUUGAGCAUCA
B16: chr12:39763582:39763583:-_ENSG00000139116_ENST00000544797|hu_mus|hu_hu_hu_mus_False|88_108 (ssRNA)
RNA: GGGAGUUCUACAGUCCGACGAUCCUCUAAGAAUUGGGCAUUCACUUUAAAAUCUGGAGGGGGCAGCCCGUUUUUAAUCGCUGAGGUCUUUUUCUCAUCAAUACUCUUGAACAGGUGUCUAACAGCACGAGAGAUGAUGCCCUGCAACAGAGGAUUGAGCAUCA
B17: chr4:25749455:25749456:-_ENSG00000091490_ENST00000264868|hu_hu|hu_hu_hu_mus_False|58_58 (ssRNA)
RNA: GGGAGUUCUACAGUCCGACGAUCGCACUAUGACCUCUAGAAAAAUCCACAGGGGGAAAAAAUGUAAACCAAUGUACAAAGCUAUUGCCUUCCCUGUGUGUGGAGUGUUUGUCUCAAGGCUCCUUCUAGCUGCUGGAUUUGGGACAACAGAGGAUUGAGCAUCA
B18: chr8:107054336:107054337:-_ENSMUSG00000031878_ENSMUST00000034349|mus_hu|FALSE|FALSE (ssRNA)
RNA: GGGAGUUCUACAGUCCGACGAUCCGAACCAAUACCUGGUAGUACCAAGUUUUUAAGAAUUUCAGUUCCUGUGGCUGUUGCAUUUAUUAGGCAAACAUGAGCAGAUUCUAAAGCCUCUUGCCCAUGAUCACCCCACAACCUCAGCAACAGAGGAUUGAGCAUCA
B19: chr4:13604834:13604835:-_ENSG00000038219_ENST00000040738|hu_hu|motif|central (ssRNA)
RNA: GGGAGUUCUACAGUCCGACGAUCACUCAGUAACAUUCUAUGAACAGUUUCAGAAUCUAUAUUCACUUCAGUAGUUCCUCGGUGAAUGGGUUCUUUCUCCCCAGGGUUCAUUUUGGACACAGCACUUUGUAUAUGCAUUUUCUUCAACAGAGGAUUGAGCAUCA
B20: 31413778_31421566_244_CDS_ENSG00000101367_ENST00000375571|human|control|control (ssRNA)
RNA: GGGAGUUCUACAGUCCGACGAUCGGAGCCAGGGAACAGCAUGUCCAUAAACUGACAAUACGCAGCCCCUGAGCACAACUGUUCGAUCUUUGUCAGAUUCAACUGCAGAGACUCAUUGAUCCAGGCCAGCAUGUCAUGUCGACUCAACAGAGGAUUGAGCAUCA
B21: chr8:81716360:81716361:+_ENSMUSG00000071064_ENSMUST00000098614|mus_mus|motif|central (ssRNA)
RNA: GGGAGUUCUACAGUCCGACGAUCCUAAGCAGGCCCCUCAUCCACGGCUGGAUGUCAGGUGGGGAGGGAAGCAGGGCCCUGCGGGGUUUGGAGAGGGAGGCUGCGAAGGUAUAAGGAGCUGAUGAUGUGGACUGUUCAGUCUCUCAACAGAGGAUUGAGCAUCA
B22: chr17:45747064:45747065:+_ENSG00000108424_ENST00000290158|hu_hu|motif|central (ssRNA)
RNA: GGGAGUUCUACAGUCCGACGAUCGCCUACAGUCCAUGCAGCUGUAUCUCGAACAACUACACUGGGGUCUUUCAUUAAUUCGGUUAGGGUGGGCAUAGCCUGUAUAACUAGUGGUUUGAGCUGACUGGGCUCUGGUCCUUCCAACAACAGAGGAUUGAGCAUCA

The list shows a part of the results.

The assay concerns the target T1, UNK ZnF1-3. Put plainly: nsRBNS (natural sequence RNA bind-n-seq); RBNS binding buffer (assumed for nsRBNS): 25 mM Tris pH 7.5, 150 mM KCl, 3 mM MgCl2, 0.01% Triton X-100, 500 ug/ml BSA, 20 U/ml SUPERase-In, 4 C; UNK is unkempt and MSI1 is Musashi-1; names of the RNAs are library labels; protein concentration not given here; high values mean tight binding.
Regarding B1, the binding signal was determined as 0.556 enrichment R.

In the case of B2, the binding signal was 0.961 enrichment R.

Turning to B3, the binding signal was found to be 0.593 enrichment R.

On to B4, for which the binding signal is 0.69 enrichment R.

Molecule B5 had a binding signal of 2.79 enrichment R.

In the case of B6, the binding signal amounted to 1.57 enrichment R.

B7: the binding signal stood at 1.21 enrichment R.

For the molecule B8, the binding signal amounted to 0.427 enrichment R.

B9 had a binding signal of 1.67 enrichment R.

In the case of B10, the binding signal was 0.825 enrichment R.

B11: the binding signal is 1.29 enrichment R.

In turn, B12 registered a binding signal of 1.06 enrichment R.

B13: the binding signal is 1.22 enrichment R.

The molecule B14 came in with a binding signal of 0.654 enrichment R.

As to B15, the binding signal turned out to be 1.03 enrichment R.

The molecule B16 showed a binding signal of 1.98 enrichment R.

As for B17, the binding signal is 1.14 enrichment R.

B18 came in with a binding signal of 0.439 enrichment R.

In turn, B19 showed a binding signal of 0.548 enrichment R.

The molecule B20 yielded a binding signal of 0.942 enrichment R.

In the case of B21, the binding signal stood at 1.44 enrichment R.

Consider B22, for which the binding signal is 0.974 enrichment R.
